About 100 (0.036%) of roughly 280,000 compounds were called active. The shares of active, inactive and inconclusive entries below differ from those in the screen. Calls follow the shape of the dose curve; as a rule, active = well fitted inhibition curve with a large enough effect in the signal ratio, with a control signal flat (not every such curve was filed as active); inconclusive = small, poorly fitted or top-dose-only effect, or effect the other way, or a change in a side signal; inactive = no such curve, though single readings can be large or run the other way; the % refers to the signal ratio. Where the call is inconclusive, the potency comes from a doubtful curve fit. A note “side channel” means that the fit belongs to a control or component signal, not to the main read-out.
target: Muscleblind-like protein 1 (Homo sapiens) (UniProt Q9NR56); test: qHTS Assay for Inhibitors of MBNL1-poly(CUG) RNA binding; conditions: TR-FRET MBNL1-His/biotin-(CUG)12 binding, 665/545 ratio; activity change, negative = inhibition: at 57.5 µM (top of the series)
Chain of UniProt Q9NR56 (Q9NR56 whole entry, looked up): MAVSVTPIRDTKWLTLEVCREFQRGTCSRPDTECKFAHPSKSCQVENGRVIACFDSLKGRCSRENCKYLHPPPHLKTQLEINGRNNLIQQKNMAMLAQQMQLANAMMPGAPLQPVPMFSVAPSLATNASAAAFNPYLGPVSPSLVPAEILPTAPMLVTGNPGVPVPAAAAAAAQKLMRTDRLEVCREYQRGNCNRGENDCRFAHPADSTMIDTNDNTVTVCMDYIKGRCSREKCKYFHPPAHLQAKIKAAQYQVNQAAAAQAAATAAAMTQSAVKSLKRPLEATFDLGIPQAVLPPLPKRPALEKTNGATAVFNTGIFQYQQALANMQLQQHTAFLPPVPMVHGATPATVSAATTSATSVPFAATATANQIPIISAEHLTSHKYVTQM
How it was run: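 Compounds (final 92 nM to 58 uM) are added to His-tagged MBNL1 and biotin-(CUG)12, then terbium anti-His antibody and streptavidin-XL665 (5 nM final). After 60 min at room temperature, the 665/545 nm ratio is read.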
% is scaled to controls: 0 for no effect and ±100 for the full control effect; potency is read from the fitted curve at half-maximal effect; tags tell the direction and shape of the fitted curve or compound fluorescence and quenching.

Row | Structure (SMILES) | Potency | activity change, negative = inhibition
1 | COc1cc(/C=C/C(=O)OCC(=O)c2c(N)n(C)c(=O)n(C)c2=O)ccc1O | inconclusive: 28.2 µM [quencher, side channel, partial curve] | –
2 | CCCCC1=CC2=C(c3ccco3)C(=O)C(C)(OC(=O)c3ccc(OC)cc3)C(=O)C2=CN1Cc1ccc(OC)cc1 (stereo not drawn) | inconclusive: 22.4 µM [fluorescent, side channel, partial curve] | –
3 | CC(C)NC(=O)c1cnc(N2CCN(c3ccccn3)CC2)c2ccccc12 | inconclusive: 35.5 µM [quencher, side channel, partial curve] | –
4 | CC(C)c1ccc(NC(=O)COC(=O)CSc2nnc(N)s2)cc1 | inconclusive: 0.316 µM [fluorescent, side channel, full curve] | –
5 | Cc1ccc(CN(C(=O)c2ccc([N+](=O)[O-])cc2)C2CCS(=O)(=O)C2)o1 (stereo not drawn) | inconclusive: 15.8 µM [quencher, side channel, partial curve] | –
6 | O=S(=O)(NCC1CCCO1)c1cccc2nsnc12 (stereo not drawn) | inconclusive: 15.8 µM [quencher, side channel, partial curve] | –
7 | Cc1ccc(Nc2nc3c(c(=O)[nH]c(=O)n3C)n2Cc2ccc(F)cc2)cc1 | inconclusive: 39.8 µM [quencher, side channel, single point] | –
8 | CCN(CC)S(=O)(=O)c1cc([N+](=O)[O-])ccc1N1CCC(C(N)=O)CC1 | inconclusive: 14.1 µM [quencher, side channel, partial curve] | –
9 | NC(=O)c1ccc(-n2nnnc2SCC(=O)Nc2ccc(F)cc2)cc1 | – | inactive: -2.05%
10 | CCC(=O)NC(=S)Nc1cccc(NC(=O)c2ccccc2C)c1 | – | inactive: 0.564%
11 | Cn1c(=O)oc2cc(S(=O)(=O)Nc3ccccc3O)ccc21 | – | inactive: 0.904%
12 | CC(C)Sc1nc2c(c(=O)[nH]c(=O)n2C)n1CC(O)COc1ccccc1 (stereo not drawn) | – | inactive: -6.3%
13 | CC[n+]1c(/C=C/c2ccc(OC)c(OC)c2)ccc2ccccc21 | inconclusive: 15.8 µM [quencher, side channel, partial curve] | –
14 | COc1ccc2oc(=O)c(-c3csc(Nc4ccc(O)cc4)n3)cc2c1 | inconclusive: 10 µM [quencher, side channel, partial curve] | –
15 | O=[N+]([O-])c1ccc2c(c1)nc1n2CCSC1 | inconclusive: 20 µM [quencher, side channel, partial curve] | –
16 | O=[N+]([O-])c1cc(C(F)(F)F)cc([N+](=O)[O-])c1NCc1cccnc1 | inconclusive: 15.8 µM [activator, partial curve] | –
17 | CCOc1ccc(-c2nnc3ccc(SCC(=O)NCc4ccco4)nn23)cc1 | inconclusive: 22.4 µM [quencher, side channel, single point] | –
18 | Cc1occc1C(=O)NNS(=O)(=O)c1ccc([N+](=O)[O-])cc1 | inconclusive: 12.6 µM [quencher, partial curve] | –
19 | Cc1ccc(NCc2nnc(SCC(=O)O)n2-c2ccc(C)cc2)cc1 | inconclusive: 15.8 µM [inhibitor, single point] | –
20 | O=C(CN1C(=O)c2cccc3cccc1c23)Nc1cccnc1 | inconclusive: 35.5 µM [quencher, side channel, single point] | –

Row | Structure (SMILES) | Potency | activity change, negative = inhibition
21 | CCc1ccc2nc3nc(C)cc(C)c3c(N)c2c1 | inconclusive: 7.94 µM [quencher, side channel, partial curve] | –
22 | CCCc1c(C)nn(-c2ncccc2[N+](=O)[O-])c1C | inconclusive: 11.2 µM [quencher, side channel, partial curve] | –
23 | O=C(NNC(=O)c1cnccn1)c1cccc([N+](=O)[O-])c1 | inconclusive: 0.631 µM [quencher, side channel, full curve, poor fit] | –
24 | CCOC(=O)C(=NC(C)(C)C)NNc1cc(Cl)ccc1Cl | inconclusive: 7.94 µM [quencher, side channel, single point] | –
25 | Cc1nc2ccccc2c2c1C(=O)N(c1ccc(C(=O)O)cc1)C2=O | inconclusive: 12.6 µM [quencher, side channel, partial curve] | –
26 | CC(C)[C@H](NC(=O)c1ccco1)C(=O)NCc1ccccc1 | – | inactive: -4.96%
27 | O=C(O)Cn1c(=O)c(-c2ccccc2)nc2ccccc21 | inconclusive: 12.6 µM [quencher, side channel, partial curve] | –
28 | O=C(CCN1C(=O)c2ccccc2C1=O)C1=NN[C@@H]2C(=O)N(c3ccc(F)cc3)C(=O)[C@H]12 | inconclusive: 25.1 µM [quencher, side channel, single point] | –
29 | Nc1cccc(Oc2ccc3c(c2)C(=O)NC3=O)c1 | inconclusive: 28.2 µM [quencher, side channel, partial curve] | –
30 | Cc1ccc(S(=O)(=O)/C(C#N)=C/c2c(N3CCN(C)CC3)nc3c(C)cccn3c2=O)cc1 | inconclusive: 22.4 µM [quencher, side channel, partial curve] | –
31 | O=C(NC1CC2CCC(C1)N2Cc1ccccc1)c1cccc(F)c1 (stereo not drawn) | – | inactive: -2.27%
32 | CN(C)S(=O)(=O)c1ccc(C(=O)NCc2nnc(SCC(=O)Nc3ccc(F)cc3)n2-c2ccc(F)cc2)cc1 | inconclusive: 1.26 µM [fluorescent, side channel, partial curve] | –
33 | Cc1ccc(S(=O)(=O)NCCCCCC(=O)Nc2ccccc2)cc1 | – | inactive: 4.74% [at 11.5 µM]
34 | CCN(c1ccccc1)S(=O)(=O)c1ccc(F)cc1 | – | inactive: -11.5%
35 | CN(C)c1ccc(C=C2C(=O)OC3(CCCC3)OC2=O)cc1 | inconclusive: 28.2 µM [quencher, side channel, single point] | –
36 | COc1ccc(OC)c(Nc2nc(-c3c(C)nc4ncccn34)cs2)c1 | – | inactive: 14.3%
37 | COC(=O)c1ccn(-c2nc(-c3ccco3)cc(C(F)(F)F)n2)n1 | inconclusive: 25.1 µM [quencher, side channel, partial curve] | –
38 | Cc1ccsc1/C=N\NC(=O)c1cc(C(C)(C)C)[nH]n1 | inconclusive: 25.1 µM [quencher, single point] | –
39 | CCC1=[N+](CC(=O)c2ccc(Br)cc2)CCn2c(C)ccc21 | inconclusive: 11.2 µM [quencher, side channel, partial curve] | –
40 | COc1cnn(-c2ccc(Br)cc2)c(=O)c1SCc1ccccc1 | inconclusive: 8.91 µM [quencher, side channel, partial curve] | –

Row | Structure (SMILES) | Potency | activity change, negative = inhibition
41 | Cc1onc(-c2ccccc2)c1-c1ccnc(N)n1 | – | inactive: 0.812%
42 | COc1ccc2nc(C)cc(N3CCN(c4ccccc4)CC3)c2c1 | inconclusive: 10 µM [quencher, side channel, partial curve] | –
43 | CC(C)N1C(=O)S/C(=C/c2ccc(Sc3nc4ccccc4[nH]3)o2)C1=O | inconclusive: 14.1 µM [quencher, side channel, partial curve] | –
44 | COc1ccc(C2=NN(c3ccc(C(=O)O)cc3)C(c3ccc(OC)c(OC)c3)C2)cc1 (stereo not drawn) | inconclusive: 31.6 µM [quencher, partial curve] | –
45 | COc1ccc(/C=C2\SC(=O)N(CC(=O)NCCCn3ccnc3)C2=O)cc1 | inconclusive: 15.8 µM [quencher, side channel, partial curve] | –
46 | Cc1cccc(NS(=O)(=O)c2ccc(C(=O)NCCCN3CCOCC3)cc2)c1C | inconclusive: 3.55 µM [quencher, side channel, partial curve] | –
47 | O=C(O)c1ccc(/C=C2\SC(=S)N(NC(=O)c3ccccc3)C2=O)cc1 | inconclusive: 25.1 µM [quencher, side channel, partial curve] | –
48 | COc1cccc(CNC(=O)Cc2ccc(-n3c(=O)[nH]c4ccccc4c3=O)cc2)c1 | inconclusive: 25.1 µM [fluorescent, side channel, single point] | –
49 | Cn1c(CC(=O)Nc2ccc(F)cc2)c(Sc2ccccc2)c2ccccc21 | inconclusive: 0.282 µM [fluorescent, side channel, partial curve] | –
50 | CCC(CC)COC(=O)C(C#N)c1nc2ccccc2nc1N1CCN(CC)CC1 (stereo not drawn) | inconclusive: 17.8 µM [quencher, side channel, partial curve] | –
51 | COc1ccc(C)cc1-n1nnnc1SCc1cc(=O)n2cc(C)ccc2n1 | inconclusive: 12.6 µM [quencher, side channel, partial curve] | –
52 | COc1ccc(C(=O)NCC(=O)N/N=C/C=C/c2ccccc2)cc1OC | inconclusive: 22.4 µM [quencher, side channel, partial curve] | –
53 | O=C(Nc1ccc(F)cc1F)c1ccc(-n2cccn2)c([N+](=O)[O-])c1 | inconclusive: 8.91 µM [quencher, side channel, partial curve] | –
54 | COc1ccc(C2C(C#N)=C(C)NC3=C2C(=O)c2ccccc23)cc1 (stereo not drawn) | inconclusive: 3.98 µM [quencher, side channel, partial curve] | –
55 | COc1cc(NC(=O)CCc2nnc3ccc(N4CCN(c5cccc(OC)c5)CC4)nn23)cc(OC)c1 | – | inactive: -0.18%
56 | COc1ccc(C(=O)NC(=S)NCc2ccco2)cc1OC | inconclusive: 0.891 µM [quencher, side channel, full curve, poor fit] | –
57 | CC1(C)CC(=O)C2=C(C1)OC(N)=C(C#N)C2c1ccc[nH]1 (stereo not drawn) | inconclusive: 17.8 µM [quencher, side channel, partial curve] | –
58 | CC1=CC(=NOC(=O)c2cccc([N+](=O)[O-])c2)C=C(C)C1=O | inconclusive: 20 µM [quencher, side channel, partial curve] | –

Source: PubChem BioAssay AID2675 (National Center for Advancing Translational Sciences (NCATS), 2010)
